Laboratory results as given in the supplement of paper PMC8728848.
The list shows a part of the results.

Legend:
Assay in all cases: glycan array binding signal (z-score within array); higher = stronger binding
Conditions in all cases: glycan notation: IUPAC condensed, linker removed
[1] = biological target: GlcNAc(b1-2)Gal(b1-3)GalNAc
Outline: (§1)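 From the Consortium for Functional Glycomics database, 3228 arrays were curated, keeping only those whose protein sequence was available. Binding is given as a within-array Z-score averaged across arrays sharing a protein sequence and across linkers. Negative Z-scores can be read as non-binding.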

[2] = biological target: GlcNAc(b1-2)Man(a1-3)[GlcNAc(b1-2)Man(a1-6)]Man(b1-4)GlcNAc(b1-4)GlcNAc
Outline: as §1

[3] = biological target: GlcNAc(b1-2)Man(a1-3)[GlcNAc(b1-2)Man(a1-6)]Man(b1-4)GlcNAc(b1-4)[Fuc(a1-6)]GlcNAc
Outline: as §1

[4] = biological target: GlcNAc(b1-2)Man(a1-3)[GlcNAc(b1-4)][GlcNAc(b1-2)Man(a1-6)]Man(b1-4)GlcNAc(b1-4)GlcNAc
Outline: as §1

[5] = biological target: GlcNAc(b1-2)Man(a1-3)[GlcNAc(b1-4)][GlcNAc(b1-2)Man(a1-6)]Man(b1-4)GlcNAc(b1-4)[Fuc(a1-6)]GlcNAc
Outline: as §1

[6] = biological target: GlcNAc(b1-2)[GlcNAc(b1-4)]Man(a1-3)[GlcNAc(b1-2)Man(a1-6)]Man(b1-4)GlcNAc(b1-4)GlcNAc
Outline: as §1

[7] = biological target: GlcNAc(b1-2)[GlcNAc(b1-4)]Man(a1-3)[GlcNAc(b1-4)][GlcNAc(b1-2)Man(a1-6)]Man(b1-4)GlcNAc(b1-4)GlcNAc
Outline: as §1

[8] = biological target: GlcNAc(b1-2)[GlcNAc(b1-4)]Man(a1-3)[GlcNAc(b1-4)][GlcNAc(b1-2)[GlcNAc(b1-6)]Man(a1-6)]Man(b1-4)GlcNAc(b1-4)GlcNAc
Outline: as §1

[9] = biological target: GlcNAc(b1-2)[GlcNAc(b1-4)]Man(a1-3)[GlcNAc(b1-4)][GlcNAc(b1-2)[GlcNAc(b1-6)]Man(a1-6)]Man(b1-4)GlcNAc(b1-4)[Fuc(a1-6)]GlcNAc
Outline: as §1

[10] = biological target: GlcNAc(b1-2)[GlcNAc(b1-6)]Man(a1-6)[GlcNAc(b1-2)Man(a1-3)]Man(b1-4)GlcNAc(b1-4)GlcNAc
Outline: as §1

[11] = biological target: GlcNAc(b1-2)[GlcNAc(b1-6)]Man(a1-6)[GlcNAc(b1-2)Man(a1-3)]Man(b1-4)GlcNAc(b1-4)[Fuc(a1-6)]GlcNAc
Outline: as §1

[12] = biological target: GlcNAc(b1-2)[GlcNAc(b1-6)]Man(a1-6)[GlcNAc(b1-4)][GlcNAc(b1-2)Man(a1-3)]Man(b1-4)GlcNAc(b1-4)GlcNAc
Outline: as §1

GlcNAc(b1-3)Fuc = biological target: GlcNAc(b1-3)Fuc
Outline: as §1

GlcNAc(b1-3)Gal = biological target: GlcNAc(b1-3)Gal
Outline: as §1

[13] = biological target: GlcNAc(b1-3)Gal(b1-3)GalNAc
Outline: as §1

GlcNAc(b1-3)Gal(b1-4)Glc = biological target: GlcNAc(b1-3)Gal(b1-4)Glc
Outline: as §1

[14] = biological target: GlcNAc(b1-3)Gal(b1-4)GlcNAc
Outline: as §1

[15] = biological target: GlcNAc(b1-3)Gal(b1-4)GlcNAc(b1-2)Man(a1-3)[GlcNAc(b1-3)Gal(b1-4)GlcNAc(b1-2)Man(a1-6)]Man(b1-4)GlcNAc(b1-4)GlcNAc
Outline: as §1

[16] = biological target: GlcNAc(b1-3)Gal(b1-4)GlcNAc(b1-2)Man(a1-3)[GlcNAc(b1-3)Gal(b1-4)GlcNAc(b1-2)Man(a1-6)]Man(b1-4)GlcNAc(b1-4)[Fuc(a1-6)]GlcNAc
Outline: as §1

[17] = biological target: GlcNAc(b1-3)Gal(b1-4)GlcNAc(b1-2)[GlcNAc(b1-3)Gal(b1-4)GlcNAc(b1-6)]Man(a1-6)[GlcNAc(b1-3)Gal(b1-4)GlcNAc(b1-2)Man(a1-3)]Man(b1-4)GlcNAc(b1-4)GlcNAc
Outline: as §1

[18] = biological target: GlcNAc(b1-3)Gal(b1-4)GlcNAc(b1-3)Gal(b1-4)GlcNAc
Outline: as §1

[19] = biological target: GlcNAc(b1-3)Gal(b1-4)GlcNAc(b1-3)Gal(b1-4)GlcNAc(b1-2)Man(a1-3)[GlcNAc(b1-3)Gal(b1-4)GlcNAc(b1-3)Gal(b1-4)GlcNAc(b1-2)Man(a1-6)]Man(b1-4)GlcNAc(b1-4)GlcNAc
Outline: as §1

[20] = biological target: GlcNAc(b1-3)Gal(b1-4)GlcNAc(b1-3)Gal(b1-4)GlcNAc(b1-2)Man(a1-3)[GlcNAc(b1-3)Gal(b1-4)GlcNAc(b1-3)Gal(b1-4)GlcNAc(b1-2)Man(a1-6)]Man(b1-4)GlcNAc(b1-4)[Fuc(a1-6)]GlcNAc
Outline: as §1

[21] = biological target: GlcNAc(b1-3)Gal(b1-4)GlcNAc(b1-3)Gal(b1-4)GlcNAc(b1-2)[GlcNAc(b1-3)Gal(b1-4)GlcNAc(b1-3)Gal(b1-4)GlcNAc(b1-6)]Man(a1-6)[GlcNAc(b1-3)Gal(b1-4)GlcNAc(b1-3)Gal(b1-4)GlcNAc(b1-2)Man(a1-3)]Man(b1-4)GlcNAc(b1-4)[Fuc(a1-6)]GlcNAc
Outline: as §1

[22] = biological target: GlcNAc(b1-3)Gal(b1-4)GlcNAc(b1-3)Gal(b1-4)GlcNAc(b1-3)Gal(b1-4)GlcNAc(b1-2)Man(a1-3)[GlcNAc(b1-3)Gal(b1-4)GlcNAc(b1-3)Gal(b1-4)GlcNAc(b1-3)Gal(b1-4)GlcNAc(b1-2)Man(a1-6)]Man(b1-4)GlcNAc(b1-4)GlcNAc
Outline: as §1

[23] = biological target: GlcNAc(b1-3)Gal(b1-4)GlcNAc(b1-3)Gal(b1-4)GlcNAc(b1-3)Gal(b1-4)GlcNAc(b1-2)Man(a1-3)[GlcNAc(b1-3)Gal(b1-4)GlcNAc(b1-3)Gal(b1-4)GlcNAc(b1-3)Gal(b1-4)GlcNAc(b1-2)Man(a1-6)]Man(b1-4)GlcNAc(b1-4)[Fuc(a1-6)]GlcNAc
Outline: as §1

[24] = biological target: GlcNAc(b1-3)Gal(b1-4)GlcNAc(b1-3)Gal(b1-4)GlcNAc(b1-3)Gal(b1-4)GlcNAc(b1-2)[GlcNAc(b1-3)Gal(b1-4)GlcNAc(b1-3)Gal(b1-4)GlcNAc(b1-3)Gal(b1-4)GlcNAc(b1-6)]Man(a1-6)[GlcNAc(b1-3)Gal(b1-4)GlcNAc(b1-3)Gal(b1-4)GlcNAc(b1-3)Gal(b1-4)GlcNAc(b1-2)Man(a1-3)]Man(b1-4)GlcNAc(b1-4)[Fuc(a1-6)]GlcNAc
Outline: as §1

[25] = biological target: GlcNAc(b1-3)Gal(b1-4)GlcNAc(b1-3)Gal(b1-4)GlcNAc(b1-3)Gal(b1-4)GlcNAc(b1-3)Gal(b1-4)GlcNAc(b1-2)Man(a1-3)[GlcNAc(b1-3)Gal(b1-4)GlcNAc(b1-3)Gal(b1-4)GlcNAc(b1-3)Gal(b1-4)GlcNAc(b1-3)Gal(b1-4)GlcNAc(b1-2)Man(a1-6)]Man(b1-4)GlcNAc(b1-4)GlcNAc
Outline: as §1

[26] = biological target: GlcNAc(b1-3)Gal(b1-4)GlcNAc(b1-3)Gal(b1-4)GlcNAc(b1-3)Gal(b1-4)GlcNAc(b1-3)Gal(b1-4)GlcNAc(b1-2)Man(a1-3)[GlcNAc(b1-3)Gal(b1-4)GlcNAc(b1-3)Gal(b1-4)GlcNAc(b1-3)Gal(b1-4)GlcNAc(b1-3)Gal(b1-4)GlcNAc(b1-2)Man(a1-6)]Man(b1-4)GlcNAc(b1-4)[Fuc(a1-6)]GlcNAc
Outline: as §1

[27] = biological target: GlcNAc(b1-3)Gal(b1-4)GlcNAc(b1-3)Gal(b1-4)GlcNAc(b1-3)Gal(b1-4)GlcNAc(b1-3)Gal(b1-4)GlcNAc(b1-2)[GlcNAc(b1-3)Gal(b1-4)GlcNAc(b1-3)Gal(b1-4)GlcNAc(b1-3)Gal(b1-4)GlcNAc(b1-3)Gal(b1-4)GlcNAc(b1-6)]Man(a1-6)[GlcNAc(b1-3)Gal(b1-4)GlcNAc(b1-3)Gal(b1-4)GlcNAc(b1-3)Gal(b1-4)GlcNAc(b1-3)Gal(b1-4)GlcNAc(b1-2)Man(a1-3)]Man(b1-4)GlcNAc(b1-4)[Fuc(a1-6)]GlcNAc
Outline: as §1

[28] = biological target: GlcNAc(b1-3)Gal(b1-4)GlcNAc(b1-3)Gal(b1-4)GlcNAc(b1-3)GalNAc
Outline: as §1

[29] = biological target: GlcNAc(b1-3)Gal(b1-4)GlcNAc(b1-3)GalNAc
Outline: as §1

[30] = biological target: GlcNAc(b1-3)Gal(b1-4)GlcNAc(b1-3)[GlcNAc(b1-3)Gal(b1-4)GlcNAc(b1-3)]GalNAc
Outline: as §1

[31] = biological target: GlcNAc(b1-3)Gal(b1-4)GlcNAc(b1-6)[Gal(b1-3)]GalNAc
Outline: as §1

[32] = biological target: GlcNAc(b1-3)Gal(b1-4)GlcNAc(b1-6)[GlcNAc(b1-3)Gal(b1-3)]GalNAc
Outline: as §1

[33] = biological target: GlcNAc(b1-3)Gal(b1-4)GlcNAc(b1-6)[GlcNAc(b1-3)]Gal(b1-4)GlcNAc
Outline: as §1

GlcNAc(b1-3)GalNAc = biological target: GlcNAc(b1-3)GalNAc
Outline: as §1

GlcNAc(b1-3)Man = biological target: GlcNAc(b1-3)Man
Outline: as §1

[34] = biological target: GlcNAc(b1-3)[GlcNAc(b1-4)][GlcNAc(b1-6)]GlcNAc
Outline: as §1

[35] = biological target: GlcNAc(b1-3)[GlcNAc(b1-6)]Gal(b1-4)GlcNAc
Outline: as §1

[36] = biological target: GlcNAc(b1-3)[GlcNAc(b1-6)]GalNAc
Outline: as §1

[37] = biological target: GlcNAc(b1-4)Gal(b1-4)GlcNAc
Outline: as §1

GlcNAc(b1-4)GlcNAc = biological target: GlcNAc(b1-4)GlcNAc
Outline: as §1

[38] = biological target: GlcNAc(b1-4)GlcNAc(b1-4)GlcNAc
Outline: as §1

[39] = biological target: GlcNAc(b1-4)GlcNAc(b1-4)GlcNAc(b1-4)GlcNAc(b1-4)GlcNAc
Outline: as §1

B1: LecB PA14 (Pseudomonas aeruginosa) (protein)
chain: MATQGVFTLPANTQFGVTAFANSAGTQTVNVQVNNETVATFTGQSTNNAIIGSKVLNSGGGGKVQILVSVNGRSSDLVSAQVILANELNFALVGSEDSTDNDYNDAVVVINWPLG
glycan array binding signal (z-score) [1]: -0.299 | glycan array binding signal (z-score) [2]: -0.277 | glycan array binding signal (z-score) [3]: -0.186 | glycan array binding signal (z-score) [4]: -0.629 | glycan array binding signal (z-score) [5]: -0.624 | glycan array binding signal (z-score) [6]: -0.118 | glycan array binding signal (z-score) [7]: -0.008 | glycan array binding signal (z-score) [8]: 0.175 | glycan array binding signal (z-score) [9]: 0.121 | glycan array binding signal (z-score) [10]: -0.539 | glycan array binding signal (z-score) [11]: -0.125 | glycan array binding signal (z-score) [12]: -0.944 | glycan array binding signal (z-score) (GlcNAc(b1-3)Fuc): 0.345 | glycan array binding signal (z-score) (GlcNAc(b1-3)Gal): -0.454 | glycan array binding signal (z-score) [13]: -0.584 | glycan array binding signal (z-score) (GlcNAc(b1-3)Gal(b1-4)Glc): 0.122 | glycan array binding signal (z-score) [14]: -0.289 | glycan array binding signal (z-score) [15]: -0.297 | glycan array binding signal (z-score) [16]: 0.466 | glycan array binding signal (z-score) [17]: -0.571 | glycan array binding signal (z-score) [18]: -0.457 | glycan array binding signal (z-score) [19]: 0.43 | glycan array binding signal (z-score) [20]: 0.888 | glycan array binding signal (z-score) [21]: 0.109 | glycan array binding signal (z-score) [22]: -0.576 | glycan array binding signal (z-score) [23]: 2.1 | glycan array binding signal (z-score) [24]: -0.662 | glycan array binding signal (z-score) [25]: -0.305 | glycan array binding signal (z-score) [26]: -0.013 | glycan array binding signal (z-score) [27]: 0.126 | glycan array binding signal (z-score) [28]: -0.583 | glycan array binding signal (z-score) [29]: -0.709 | glycan array binding signal (z-score) [30]: -0.239 | glycan array binding signal (z-score) [31]: 0.055 | glycan array binding signal (z-score) [32]: 0.079 | glycan array binding signal (z-score) [33]: -0.229 | glycan array binding signal (z-score) (GlcNAc(b1-3)GalNAc): -0.194 | glycan array binding signal (z-score) (GlcNAc(b1-3)Man): -0.123 | glycan array binding signal (z-score) [34]: -0.668 | glycan array binding signal (z-score) [35]: -0.714 | glycan array binding signal (z-score) [36]: -0.503 | glycan array binding signal (z-score) [37]: -0.457 | glycan array binding signal (z-score) (GlcNAc(b1-4)GlcNAc): -0.362 | glycan array binding signal (z-score) [38]: -0.09 | glycan array binding signal (z-score) [39]: -0.406
